Source: the supplement of paper PMC12217912
Some of the results follow. Sequences were assembled here from the parent chain. Values near 0.05 are background.

B1: TEV protease; numbered along this chain (parent)
chain: MGESLFKGPRDYNPISSSICHLTNESDGHTTSLYGIGFGPFIITNKHLFRRNNGTLVVQSLHGVFKVKDTTTLQQHLVDGRDMIIIRMPKDFPPFPQKLKFREPQREERICLVTTNFQTKSMSSMVSDTSCTFPSGDGIFWKHWIQTKDGQCGSPLVSTRDGFIVGIHSASNFTNTNNYFTSVPKNFMELLTNQEAQQWVSGWRLNADSVLWGGHKVFMVKPEEPFQPVKEATQL

Variants of: B1
Experiment: raw area under fraction-flipped curve 0-4 h after induction (AUC4h, not background-subtracted), DNA-recorder readout of cleavage of the substrate (dimensionless); higher = more cleavage of the substrate by the protease variant
Settings: temperature: 34 °C; time window: 0-4 h after rhamnose induction
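Also: Bxb1 expression induced with 0.2% (w/v) L-rhamnose at OD600 near 0.5, cultures sampled hourly, flipped fraction per protease–substrate barcode pair counted by paired-end Illumina sequencing.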

| Variant | area with substrate ENCYFQS | area with substrate ENEYFQS | area with substrate ENNYFQS | area with substrate ENPYFQS | area with substrate ENQYFQS | area with substrate ENRYFQS | area with substrate ENFYFQS | area with substrate ENIYFQS | area with substrate ENKYFQS | area with substrate ENSYFQS |
| --- | --- | --- | --- | --- | --- | --- | --- | --- | --- | --- |
| MGESLFKGPRDYNPISSSICHLTNESDGHTTSLYGIGFGPFIITNKHLFRRNNGTLVVQSLHGVFKVKDTTTLQQHLVDGRDMIIIRMPKDFPPFPQKLKFREPQREERICLVTTNFQTKSMSSMVSDTSCTFPSGDGIFWKHWIQTKDGQCGSPLVSTRDGFIVGIHSASNFTNTNQYFTSVPKNFMELLTNQEAQQWVSGWRLNADSVLWGGHKVFMVKPEEPFQPVKEATQL [N178Q] | 0.065 | 0.0731 | 0.0504 | 0.0465 | 0.065 | 0.0904 | – | – | – | – |
| MGESLFKGPRDYNPISSSICHLTNESDGHTTSLYGIGFGPFIITNKHLFRRNNGTLVVQSLHGVFKVKDTTTLQQHLVDGRDMIIIRMPKDFPPFPQKLKFREPQREERICLVTTNFQTKSMSSMVSDTSCTFPSGDGIFWKHWIQTKDGQCGSPLVSTRDGFIVGIHSASNFTNTNSYFTSVPKNFMELLTNQEAQQWVSGWRLNADSVLWGGHKVFMVKPEEPFQPVKEATQL [N178S] | 0.0464 | 0.0611 | 0.0597 | – | 0.0416 | 0.0367 | 0.0667 | 0.12 | 0.0665 | 0.15 |
| MGESLFKGPRDYNPISSSICHLTNESDGHTTSLYGIGFGPFIITNKHLFRRNNGTLVVQSLHGVFKVKDTTTLQQHLVDGRDMIIIRMPKDFPPFPQKLKFREPQREERICLVTTNFQTKSMSSMVSDTSCTFPSGDGIFWKHWIQTKDGQCGSPLVSTRDGFIVGIHSASNFTNTNYYFTSVPKNFMELLTNQEAQQWVSGWRLNADSVLWGGHKVFMVKPEEPFQPVKEATQL [N178Y] | 0.0849 | 0.0479 | 0.0553 | – | 0.0744 | – | – | 0.181 | – | – |
| MGESLFKGPRDYNPISSSICHLTNESDGHTTSLYGIGFGPFIITNKHLFRRNNGTLVVQSLHGVFKVKDTTTLQQHLVDGRDMIIIRMPKDFPPFPQKLKFREPQREERICLVTTNFQTKSMSSMVSDTSCTFPSGDGIFWKHWIQTKDGQCGSPLVSTRDGFIVGIHSASNFTNTNNYHTSVPKNFMELLTNQEAQQWVSGWRLNADSVLWGGHKVFMVKPEEPFQPVKEATQL [F180H] | 0.0498 | – | – | – | – | – | 0.0637 | – | – | 0.0808 |
| MGESLFKGPRDYNPISSSICHLTNESDGHTTSLYGIGFGPFIITNKHLFRRNNGTLVVQSLHGVFKVKDTTTLQQHLVDGRDMIIIRMPKDFPPFPQKLKFREPQREERICLVTTNFQTKSMSSMVSDTSCTFPSGDGIFWKHWIQTKDGQCGSPLVSTRDGFIVGIHSASNFTNTNNYFHSVPKNFMELLTNQEAQQWVSGWRLNADSVLWGGHKVFMVKPEEPFQPVKEATQL [T181H] | 0.0574 | – | – | – | 0.0622 | – | 0.0682 | – | – | – |
| MGESLFKGPRDYNPISSSICHLTNESDGHTTSLYGIGFGPFIITNKHLFRRNNGTLVVQSLHGVFKVKDTTTLQQHLVDGRDMIIIRMPKDFPPFPQKLKFREPQREERICLVTTNFQTKSMSSMVSDTSCTFPSGDGIFWKHWIQTKDGQCGSPLVSTRDGFIVGIHSASNFTNTNNYFVSVPKNFMELLTNQEAQQWVSGWRLNADSVLWGGHKVFMVKPEEPFQPVKEATQL [T181V] | 0.0662 | 0.0687 | – | 0.0464 | 0.0555 | – | – | – | 0.0645 | 0.0811 |
| MGESLFKGPRDYNPISSSICHLTNESDGHTTSLYGIGFGPFIITNKHLFRRNNGTLVVQSLHGVFKVKDTTTLQQHLVDGRDMIIIRMPKDFPPFPQKLKFREPQREERICLVTTNFQTKSMSSMVSDTSCTFPSGDGIFWKHWIQTKDGQCGSPLVSTRDGFIVGIHSASNFTNTNNYFTSGPKNFMELLTNQEAQQWVSGWRLNADSVLWGGHKVFMVKPEEPFQPVKEATQL [V183G] | 0.0429 | 0.0589 | – | 0.0511 | 0.0441 | – | 0.0906 | 0.0523 | – | 0.05 |
| MGESLFKGPRDYNPISSSICHLTNESDGHTTSLYGIGFGPFIITNKHLFRRNNGTLVVQSLHGVFKVKDTTTLQQHLVDGRDMIIIRMPKDFPPFPQKLKFREPQREERICLVTTNFQTKSMSSMVSDTSCTFPSGDGIFWKHWIQTKDGQCGSPLVSTRDGFIVGIHSASNFTNTNNYFTSVPKRFMELLTNQEAQQWVSGWRLNADSVLWGGHKVFMVKPEEPFQPVKEATQL [N186R] | 0.0551 | – | – | – | 0.0734 | – | – | – | – | – |
| MGESLFKGPRDYNPISSSICHLTNESDGHTTSLYGIGFGPFIITNKHLFRRNNGTLVVQSLHGVFKVKDTTTLQQHLVDGRDMIIIRMPKDFPPFPQKLKFREPQREERICLVTTNFQTKSMSSMVSDTSCTFPSGDGIFWKHWIQTKDGQCGSPLVSTRDGFIVGIHSASNFTNTNNYFTSVPKNFRELLTNQEAQQWVSGWRLNADSVLWGGHKVFMVKPEEPFQPVKEATQL [M188R] | 0.0642 | 0.0749 | 0.0513 | 0.0514 | – | 0.0579 | 0.0612 | – | – | 0.0594 |
| MGESLFKGPRDYNPISSSICHLTNESDGHTTSLYGIGFGPFIITNKHLFRRNNGTLVVQSLHGVFKVKDTTTLQQHLVDGRDMIIIRMPKDFPPFPQKLKFREPQREERICLVTTNFQTKSMSSMVSDTSCTFPSGDGIFWKHWIQTKDGQCGSPLVSTRDGFIVGIHSASNFTNTNNYFTSVPKNFMELLTCQEAQQWVSGWRLNADSVLWGGHKVFMVKPEEPFQPVKEATQL [N193C] | 0.0762 | – | 0.0508 | – | 0.061 | 0.0553 | – | 0.0639 | – | – |
| MGESLFKGPRDYNPISSSICHLTNESDGHTTSLYGIGFGPFIITNKHLFRRNNGTLVVQSLHGVFKVKDTTTLQQHLVDGRDMIIIRMPKDFPPFPQKLKFREPQREERICLVTTNFQTKSMSSMVSDTSCTFPSGDGIFWKHWIQTKDGQCGSPLVSTRDGFIVGIHSASNFTNTNNYFTSVPKNFMELLTQQEAQQWVSGWRLNADSVLWGGHKVFMVKPEEPFQPVKEATQL [N193Q] | 0.0489 | – | – | – | 0.0632 | – | 0.0682 | 0.0973 | – | – |

Same assay, conditions: temperature: 34 °C; time window: 0-4 h after rhamnose induction

| Variant | area with substrate ENVYFQS | area with substrate ENYYFQS | area with substrate ENDYFQS | area with substrate ENTYFQS | area with substrate ENGYFQS | area with substrate ENHYFQS | area with substrate ENMYFQS |
| --- | --- | --- | --- | --- | --- | --- | --- |
| MGESLFKGPRDYNPISSSICHLTNESDGHTTSLYGIGFGPFIITNKHLFRRNNGTLVVQSLHGVFKVKDTTTLQQHLVDGRDMIIIRMPKDFPPFPQKLKFREPQREERICLVTTNFQTKSMSSMVSDTSCTFPSGDGIFWKHWIQTKDGQCGSPLVSTRDGFIVGIHSASNFTNTNSYFTSVPKNFMELLTNQEAQQWVSGWRLNADSVLWGGHKVFMVKPEEPFQPVKEATQL [N178S] | 0.0702 | 0.0807 | – | – | – | – | – |
| MGESLFKGPRDYNPISSSICHLTNESDGHTTSLYGIGFGPFIITNKHLFRRNNGTLVVQSLHGVFKVKDTTTLQQHLVDGRDMIIIRMPKDFPPFPQKLKFREPQREERICLVTTNFQTKSMSSMVSDTSCTFPSGDGIFWKHWIQTKDGQCGSPLVSTRDGFIVGIHSASNFTNTNYYFTSVPKNFMELLTNQEAQQWVSGWRLNADSVLWGGHKVFMVKPEEPFQPVKEATQL [N178Y] | 0.124 | – | 0.0672 | 0.0866 | – | – | – |
| MGESLFKGPRDYNPISSSICHLTNESDGHTTSLYGIGFGPFIITNKHLFRRNNGTLVVQSLHGVFKVKDTTTLQQHLVDGRDMIIIRMPKDFPPFPQKLKFREPQREERICLVTTNFQTKSMSSMVSDTSCTFPSGDGIFWKHWIQTKDGQCGSPLVSTRDGFIVGIHSASNFTNTNNYFHSVPKNFMELLTNQEAQQWVSGWRLNADSVLWGGHKVFMVKPEEPFQPVKEATQL [T181H] | 0.0571 | – | 0.0542 | – | 0.0619 | – | – |
| MGESLFKGPRDYNPISSSICHLTNESDGHTTSLYGIGFGPFIITNKHLFRRNNGTLVVQSLHGVFKVKDTTTLQQHLVDGRDMIIIRMPKDFPPFPQKLKFREPQREERICLVTTNFQTKSMSSMVSDTSCTFPSGDGIFWKHWIQTKDGQCGSPLVSTRDGFIVGIHSASNFTNTNNYFVSVPKNFMELLTNQEAQQWVSGWRLNADSVLWGGHKVFMVKPEEPFQPVKEATQL [T181V] | – | – | 0.0688 | 0.0388 | – | 0.0597 | – |
| MGESLFKGPRDYNPISSSICHLTNESDGHTTSLYGIGFGPFIITNKHLFRRNNGTLVVQSLHGVFKVKDTTTLQQHLVDGRDMIIIRMPKDFPPFPQKLKFREPQREERICLVTTNFQTKSMSSMVSDTSCTFPSGDGIFWKHWIQTKDGQCGSPLVSTRDGFIVGIHSASNFTNTNNYFTSGPKNFMELLTNQEAQQWVSGWRLNADSVLWGGHKVFMVKPEEPFQPVKEATQL [V183G] | 0.0598 | – | 0.0357 | – | 0.0575 | 0.0521 | – |
| MGESLFKGPRDYNPISSSICHLTNESDGHTTSLYGIGFGPFIITNKHLFRRNNGTLVVQSLHGVFKVKDTTTLQQHLVDGRDMIIIRMPKDFPPFPQKLKFREPQREERICLVTTNFQTKSMSSMVSDTSCTFPSGDGIFWKHWIQTKDGQCGSPLVSTRDGFIVGIHSASNFTNTNNYFTSVPKNFRELLTNQEAQQWVSGWRLNADSVLWGGHKVFMVKPEEPFQPVKEATQL [M188R] | – | 0.0508 | – | 0.0623 | – | 0.0735 | 0.0727 |
| MGESLFKGPRDYNPISSSICHLTNESDGHTTSLYGIGFGPFIITNKHLFRRNNGTLVVQSLHGVFKVKDTTTLQQHLVDGRDMIIIRMPKDFPPFPQKLKFREPQREERICLVTTNFQTKSMSSMVSDTSCTFPSGDGIFWKHWIQTKDGQCGSPLVSTRDGFIVGIHSASNFTNTNNYFTSVPKNFMELLTCQEAQQWVSGWRLNADSVLWGGHKVFMVKPEEPFQPVKEATQL [N193C] | – | – | – | 0.0702 | 0.0423 | 0.0602 | – |
| MGESLFKGPRDYNPISSSICHLTNESDGHTTSLYGIGFGPFIITNKHLFRRNNGTLVVQSLHGVFKVKDTTTLQQHLVDGRDMIIIRMPKDFPPFPQKLKFREPQREERICLVTTNFQTKSMSSMVSDTSCTFPSGDGIFWKHWIQTKDGQCGSPLVSTRDGFIVGIHSASNFTNTNNYFTSVPKNFMELLTQQEAQQWVSGWRLNADSVLWGGHKVFMVKPEEPFQPVKEATQL [N193Q] | 0.0452 | – | 0.0789 | – | 0.0992 | – | 0.064 |
